Data published in PubChem BioAssay AID686971 (National Center for Advancing Translational Sciences (NCATS), 2013).
Hit rate of the full screen: of about 360,000 compounds, about 7,500 (2.1%) were called active. This list was built around the results that the source calls inconclusive (neither active nor inactive); the mix of calls is not that of the screen. Calls follow the shape of the dose curve; as a rule, active = well fitted cell-killing curve with a large enough effect; inconclusive = small, poorly fitted or top-dose-only effect, or effect the other way, or another doubt; inactive = no such curve, though single readings can be large or run the other way. Potencies of inconclusive entries are left out as doubtful fits.

assay: qHTS for induction of synthetic lethality in tumor cells producing 2HG: qHTS for the HT-1080-IDH1KD cell line; conditions: HT-1080 IDH1 knockdown viability, ATP luminescence, 48 h; activity, negative = toxicity: at 46.1 µM (top of the series) unless noted;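 as to activity, negative = toxicity: 0% = DMSO wells and -100% = cell-free medium wells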
How it was run: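 Cytotoxicity counter-line: IDH1KD HT-1080, 48 h, CellTiter-Glo. Curves classed by r2, magnitude and activity.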
Potency is read from the fitted curve at half-maximal effect; tags tell the direction and shape of the fitted curve.

SMILES	Potency	activity, negative = toxicity
O=C(CN1CCN(c2ccc(O)cc2)CC1)Nc1ccc(SC(F)F)cc1	inactive	
CCn1c(=O)c(C(=O)Nc2ccccc2C)c(O)c2ccccc21	inactive	
Cc1ccc(-c2nnc(SCC(=O)Nc3sc(C)c(C)c3C#N)n2C)cc1	inactive	
COc1ccccc1NC(=O)N1CCC(NC(=O)C2CCCCC2)CC1	inactive	
OC(COC(c1ccccc1)c1ccccc1)CN1CCc2ccccc2C1 (stereo not given)		inconclusive: -32.2% [cytotoxic]
CCOC(=O)C1(Cc2ccccc2)CCN(Cc2cnn(-c3ccccc3)c2)CC1	inconclusive [cytotoxic, single point]	
CCc1ccc2c(c1)NC(=O)C2(C)Cc1ccccc1C#N (stereo not given)	inconclusive [cytotoxic, single point]	
COc1cc(N/C(N)=N/c2nc(C)cc(C)n2)cc(OC)c1	inconclusive [cytotoxic, single point]	
CCOc1ccc(C(C)C)cc1S(=O)(=O)N1CCN(C(=O)c2ccco2)CC1	inactive	
C/C(=N\Nc1cc(C)nc(-c2ccccc2O)n1)c1ccccc1	inconclusive [cytotoxic, single point]	
COc1cc(/C=C/C(=O)OCC(=O)NCc2ccc(F)cc2)ccc1O	inconclusive [cytotoxic, full curve]	
COc1ccc(CC(=O)NC(C)c2nnc(SCC(=O)c3ccc(Br)cc3)n2C)cc1 (stereo not given)	inconclusive [cytotoxic, single point]	
CCCCC/C=N/NC(=O)c1[nH]c2ccc([N+](=O)[O-])cc2c1C	inconclusive [cytotoxic, single point]	
O=C(Nc1ccc2c(c1)OCCO2)C(=O)c1c[nH]c2ccccc12	inconclusive [cytotoxic, partial curve]	
CCCCCC(O)(CCN1CCCCC1)c1ccc(OCC)cc1 (stereo not given)	inconclusive [cytotoxic, partial curve]	
C/C(=N\NC(=O)C1COc2ccccc2O1)c1ccccn1 (stereo not given)	inconclusive [cytotoxic, full curve]	
NC(=O)c1nn(-c2ccccc2)nc1NC(=O)Cn1nnc(-c2ccccc2)n1	inactive	
NC(=S)NN=Cc1ccc(OC(=O)COc2cc(Cl)c(Cl)cc2Cl)cn1	active: 7.31 µM	
Cc1ccc(-c2nc3ccc(Br)cn3c2Cc2cccc(Cl)c2)cc1	inconclusive [cytotoxic, single point]	
COc1ccc(C(C(=O)NC2CCCC2)N(C(=O)c2snc(-c3ccc(F)cc3)c2N)c2ccc(OC)cc2)cc1 (stereo not given)	inactive	
